# Assay results taken from the RNAGym collection of RNA variant scans (doi:10.7554/elife.90254).
# The source gives no read counts; variants with many changes may rest on few reads.
# B1: LINE1-mini (parent)
# chain: GGCAGAGCUCAACACAGCGUGGCAAAGUGGCUGUGGCUAGACUGCC
# Variants of: B1
# Assay: self-cleavage, relative activity (ratio to wild type); higher = more cleavage; in vitro, sequencing; the parent is a self-cleaving ribozyme
row,Variant,self-cleavage
1,GGCAUAGCUCAACACAACGUGGCAAAAUGGCUGUGGGUAGACUGCC,0.88
2,UGCAGAGCUCAACACAGCGUGUCAAAGUGGGUGUGGCUAGAAUGCC,0.05
3,UGCAGAGCUCAACACAGCGUGGCAAAGUGGCUGUGACUGGACUGCC,0.02
4,GGCAGAGCUCAACACAUCGUUGCCAAGUCGCUGUGGCUAGACUGCC,1.65
5,GGCAGAACUCUAUACAGCGUGGCAAAGUGGCUGUGGCUAGACUGCC,0.03
6,UGAAGAGCUCAACAUAGUGUUGCUAAGUGGCUGUAGCAAGACUGCC,0.27
7,GGCAGAGCUCAACACAGCGUGCCAAAGUGGCUGUGGCUAGAGUGUC,0.03
8,GGCAGAUCCCAACACAGCGUGGCAAAGUGGCUGCGGCUGGACUGCC,0
9,GGCAGAGCUCAAUACAGCGUGGCAAACUGGCUGUGGCUAGACUGCG,0.34
10,GGCAGAGCUCAACAGAGCGUGGCAAAGUGGCUUUGGCUAGACUGCA,0.12
11,GGCAUAGCUCAACACAAGGUGGCAAAGAGGCUGCGGCUAGACUGAC,0.04
12,GGCAUAGCUCAACACAGCGUGGCAAAGUGGCCGUGGCUAGACGGCC,0.04
13,AGCAGAGCUCAACAUAGAGUGGCAAAGUGGCUGUGGCUAGACUGCC,0.24
14,GGCAGAGCGCAACUCAGCGUGGCAAAGUGGGUGUGGCUAGACUGCC,0.03
15,GGCAGAGCUCAACACAGCGUGGCAGAAUGGCUGUUGCUAGACUGCC,0.09
16,GGCAGAGCACAACAAAGCGUGGCAAGGUGGCUGUGGCUAGACUGCC,0.07
17,GGCAGAGCACAACACAGCGUUGCAAAGGGGCUGUGGCUAGACUGCC,0.09
18,GGCAGAGCUCAACACAGCGUGGCAAUGUGGCUGUCGCUAGACUCCC,0.02
19,GGCACAGCUCAACACAGCGUGGCCAAGUGGCUGUGGAUAGACUGCC,0.01
20,AGCAGAGCUCAACUCAGCGUGGCAAAGUGGCUGUGGCUAGACUCCC,0.26
21,GGCAGAGUUCAACACAGCUUGGCAAAGUGGCUGUCGCUAGACUGCA,0.1
22,GGAAGAGCUCAACACAGCGUGCCAAAGUGCCUGUGGCUAGACUGCC,1.02
23,GGCGGAGGUCAACACAGCGUGGCAAAGUGGUUGUCGCUAGACUGCC,0.02

row,Variant,self-cleavage
1,GGCAGAGCUCAACACAGCGUGACAACGUGGCUGAGUCUAGACUGCC,0.04
2,GGCAGAGCUCAACACAGAUUGGCAAAGUGGCUGUAGCUAGAAUGCC,0.02
3,GGCAGAGCGCAACACAGCGUGGCAAAGUGGAUGCGGCUAGACUGCC,0.02
4,GGCAGAGCUCAACAGAGCGUGGCAAAGUGGCUGUUGCAACAAUGCC,0.01
5,GUCAGAGCUCUACACAGCGUGCCAAAUUGGCUGUGGCUAGACUGCA,0.01
6,GGCAGAUCUCAACACAGCGUUGCAAAGUGGCUGUGGCGAGGCUGCC,0.03
7,GGCAGAGCUCAACAAAGCGUUGCAAAGUGGCUGUGACUAGACUACC,0.23
8,GGCACAGCUCAAUACAGCGUGCCAAUGGGGCUGUGGCUCGACUGCC,0.02
9,GGCAGAGCUCAACAUAGCGUGACAAAGUGGCCGUGGCUAGAUUGCC,0.03
10,GGCAGAGCUAACCACAGCGUGGCAAUGUGGCUGUGGCUAGACUGCC,0.01
11,GACAGAGCUCAAUACAGCGUGGCAAAGUGGCUGUGGCUCGAGUGCC,0.02
12,GGCAGAGCUCAUCACAGCGUGGCAAAGUUGGUGUGGCCAGACUACC,0.02
13,GGCAGAGCUCAACCCAGCGUGGGAAUGUGGCUGUGGAUAGACUGCC,0.01
14,GGCGGACCUCAACAUAGCGUGGCAAAGUGGCUGUGGCUAGACUGCC,0.07
15,GCCAGAGCACACCACAGCGUGGCAAAGUGGCUGUGGCUAGACUGCC,0.03
16,GGCAGAUCUCAACACAGCGUGGCGAGGUGGCUGUGGCUACAAUGCC,0.05
17,GGCAGACCUCAACACAGCGUGGCAUAGUGGCUGAGGCUAGACUGUC,0.12
18,UGCCGAGUUCAACCCAGCGUGGCAAAGUGGCUGUGGCUAGAAUGCC,0.01
19,GGCAGAGCUAAAUACAGCGUGGUAAAGUGGCUGCGGCUACACUGCC,0.01
20,GGCAGAGCUCAACACCGCGUGGCAAAGUGGCUGUGGUUAGAUUGCC,0.02
21,GGCAGAGCUCAAAGCAGCCUGGCAAAGUGCCUGUGGCUAGACUGCC,0.11
22,GCCAGAACUCUACACAGAGUGGCAAAGUGACUGUGGCUAGUCUGGC,0.01
23,GGCUGAGCUCAACACAGCGUGGCAAAGUGGCAGUGGCUAGACUGCU,0.16

row,Variant,self-cleavage
1,GGCAUAUCUCAACACAGCGUGGCAAAGUGGCUGUGGCUCGACUUCA,0.08
2,GGCAGAGCUCAACACGGCGUGGCAACGUGGCUGUGGCUAGAAUGCC,0.02
3,GGCAGAGCUCAACCCAGCGUGGCAAAGUCGCUGUGGCUUCACUGCC,0.02
4,GGCAAAGCUCAACACCUAGUGGCAAAGUGGCUGUGGCUAGACGACC,0.07
5,GGCAGAGCUAAACGCAGCGUGGCAAGGUGGCUGUGGCUGGACUGCC,0.06
6,GGAAGAGCCCAACACAGCGUGGUAAAGGGGCUGUGGCUUGACUGCC,0.01
7,GGCAUAGCUCAGCACAGCGGGGCAAAGUGGCUGUGGCUAGACUGCC,0.03
8,GUCACAGCUCAACACAGCGUGGCAAAGUGGCUAUCGCUAGACUGCC,0.02
9,GGCAGAGCUCAACACAACUUGGCAAAGUGGCUGUAGCUUUACUGCC,0
10,GGCAGAGCUAAACACAGCGUGGUAAAGUGGCUGUGGCUAGAAUGCU,0.01
11,GGCACAGCUCACCCCAGCGUAUCAAAGUGGCUGUGGCUAGACUGCC,0.02
12,GGCAGAGCUCAACACAUCGUGGAAAAUUGUCCAUGGCUAGACUGCC,0.07
13,GGCAGAGCUCAACACAGCGGGGCAAAGUCGCUGUGGCUAAACUGCC,0.02
14,GGCAGAGCUAAACACAGCGUGGCAAAGUGGUUGUGGCCAGACUGCC,0.06
15,GGCAGAGAUCAUCACCGCGUGGCAAAGUGGCUGUGGCUAGACUGCC,0.11
16,GGCAGAGUUCAACACAGGGUGGCAAAGUGGCUGUGGCUAGACUUCC,0.08
17,GGCAUAGCUCAGCACAGCGUGGCAAAGUGGCUGUGGCUAGACUGCA,0.01
18,GGCAGAGCUCAACACCGCGUGGCAAAGUGGCCGUGGCUCGACUGCC,0
19,GGCAGAGCUCAACUCAGCGUGGCAAAGUGGCUGCGGCCAGACUGCC,0.1
20,GGCAGAGCUGAACACAGCGUUGCAAAGUUGCUGUGGCUAGCCUGCC,0.02
21,GGCAGACCUCAACACCGCGUGGCAAAGUGUAUGUGGCUAGACUGCC,0.05
22,GGCAGAGCUCAAUACAGCGUGGAAAAAUGUCUGUGGCUAGACUGCC,0.16
23,GGCUGAGCUUAACACAGAGUGGCAAAUCGGCUGUGGCUAGACUGCC,0.24

row,Variant,self-cleavage
1,GGCAGAGCUCAACAUAGCUUGGCAAAGUGGCUGUGGCUAGACAGCC,0.02
2,GGCAGAGCUCAACAUACCAUGUCAAAGUGGCUGUGCCUAGACUGCC,0
3,GGCAGAGCUCAACACAGCGUGGCAACGUGCAUGUGGCUAGACUGCC,0.19
4,GACAGAGCUCAACACAGCGUGGAAAAGCGGCUGUGGCUAGACUGCC,0.17
5,GGCAGAGCUAAACACAGCGUGGCAAAGUGGCUUUGGCUUGUCUGCC,0.01
6,GGCAGAGCUUAACCCAGCGUGGCAAAGUGGCCGUGGCUAAACUGCC,0.02
7,GGUAGAGCUCAACACAGCGUGGCAAAGGGGCUGUGGCUAAACUGCC,0.05
8,GGCAGAGAUCUACACAGCGUGGCAAAGUGGCUGUCGAUAGACUGCC,0.01
9,GGCAGAGCUCACCACAUCGUGGCAAAGUGGCUGUGGCUAGAUUGCC,0.13
10,GGCAGAGCUCAGCACAGCGCGGCAAAGUUGCUGUGGCUAGACUGAC,0.01
11,GGCAGAGCUUAACACAACGUGGCAAAGUGGCUUGGUCUAGACUGCC,0.03
12,GGCAGAGCUCAACACAGCGUGGCUAAGGGGCUGUGGGUAGACUGCC,0.01
13,GUCAGAGCUCAUCACAGUGAGGCAAAGUGUUUGUGGCUUGACUGCC,0.01
14,GGCAGAGCUCCGCACAGCGUGGCAAAGUGGCCGUGUCUAGACUGCC,0.03
15,GGCAGAGCUCACCGCAUCGUGGCAAAGUGGCUGUGGCUAGACUGCC,0.01
16,AGUAAAGGUCAACACAGCGGGGCAAAGUGGCUGUGGCUAGACUGCC,2.19
17,GGGAGAGCUCAACACAGCGUGGCGAAGUGGCUGUGGCUAGACAGGC,0.4
18,GGCAGAGCUCAACACUGCGUGGGAAAGUGCCUGUGGCUAGACUGCC,0.02
19,UGCAGAGCUCAACACAGAGUGGCAAAGCGGCUAUGGCUAGACUGCC,0
20,GGCACAGGUCAACACAGCGUGGGAAAGUGACUGUGGCAAGACUGCC,0.18
21,GGCAGAGCUCAACACAGCGUGUCAAAGUGGCUGUGUCUAGCCUGCC,0.02
22,GGCAGAGCUAAACACAGCGUGGCAAAGUUGCUGUGGCUCGACUGAC,0
23,GGUAGUGUGCAACACAGCGCGGCACAGUGGCUGUGGCUAGACUGCC,0.05

row,Variant,self-cleavage
1,GGCAGAGCUCAACAGGGCGUGGCGAAGCGGCUGUGGCUAGACUGGC,0.02
2,GGCACAGAUCAACACAGCGUGGCAAAGCGGCUGUGGCUAGACUGCC,0.03
3,UGCCGAGCUCAACGCAGCGUGUCUAAGUGUCUCUGGAUAGACUGCC,0.04
4,GGCAGAGCUCAAUACAGCGUGGCACAGUGGCCGUGGCUAGACUGCC,0.16
5,GGCAGAGGUCAACAUAGCGUGGCAGAGUGGCUGUGGUUAGACUUCC,0.08
6,GGCAGAGCUCAACACAGCGUGGCAAAAUGGCUGUGGCUACACGCCC,0.02
7,GACAGAGCUCACCACAGCGUGGCAUAGUGGCUGUGGCUAGACUGCC,0.16
8,GGCAGAGUACAACACUGCGUGGCAAAGUGUCAGUGGCUUGACUGCC,0.07
9,GGCCGAGCUUAACACAGCGUGGCAAAGUGCCUGUGGCUAUACUGCC,0.05
10,GGCAGAGCUCAACACAGUGUGGCAUAAUGGCUGUGGCUAGACUGCC,0.9
11,GGCAGAUGUGAACACAGCGUGGGAAAGUGGCUGUAGCUAGACUGCC,0.03
12,GGCAGAGCUCAACACAGCGUGGCAAAGUAGCUGUAGCUAGACUGCU,0.24
13,GGCAGAGCUCAAUCCAGCGUUGCAAAGGGGCUGUGGCUAGACUGCC,0.02
14,GGCAGAGCUGAACACAGCGUGGCAGAGUGGCUGCGGGUAGCCUGCC,0
15,GGCAGGGCCCAACACAGCGCGGCAAAGUGGCUGUGGCUAGACUGCC,0.02
16,GGCAGAGCUCAACACAGCGUGGCAAAGUGUCGGUGGCCAGACUGCC,0.02
17,GGCAGAGCUAGACACAGCGGGGCAAAGUGGCUGUGGCUAGACUGCC,0.02
18,GGCAGAGCUCAACAAAGCGUGACAAAGUGGCUGUUGCGAGACUGCC,0.12
19,CGCAGAGAUCAACUCAGCUUGGCAAAGUGGCUGUGGCUAGACUGCC,0.06
20,CUCAGAGCUCAACGCAGCGUGGCAAAGUGGCUGUGGCUAGACUGCC,0.1
